Structures can show the parent of a compound that is named as a salt. ± gives the standard deviation of the averaged measurements. The list shows a part of the results.
What was measured:
[1] = tested on: murine small intestinal organoids (ENR+CD Paneth differentiation); experiment: cellular ATP (CellTiter-Glo 3D) relative to plate median (log10 fold change); higher = more viable cells; details: 6 d
[2] = tested on: murine small intestinal organoids (ENR+CD Paneth differentiation); experiment: carbachol-stimulated secreted lysozyme activity relative to plate median (log10 fold change); higher = more Paneth cell lysozyme secretion; details: 6 d, carbachol 10 µM
[3] = tested on: murine small intestinal organoids (ENR+CD Paneth differentiation); experiment: basal (non-stimulated) secreted lysozyme activity relative to plate median (log10 fold change); higher = more Paneth cell lysozyme secretion; details: 6 d
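Throughout, for basal (non-stimulated) secreted lysozyme activity relative to plate median: ISC-enriched organoid precursors grown as 2.5D pseudo-monolayer on Matrigel, compound given on day 0 and day 3, plate values LOESS-normalized before median fold change, three murine donors.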
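Throughout, for cellular ATP (CellTiter-Glo 3D) relative to plate median: 2.5D pseudo-monolayer culture of ISC-enriched organoids partly embedded atop Matrigel, compound added on day 0 and again on day 3, per-plate LOESS correction before median fold change.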

Row | Structure (SMILES) | cellular ATP (log10) ([1]; 0.08 µM) | cellular ATP (log10) ([1]; 0.4 µM) | cellular ATP (log10) ([1]; 2 µM) | cellular ATP (log10) ([1]; 10 µM) | carbachol-stimulated secreted lysozyme activity (log10) ([2]; 0.08 µM) | carbachol-stimulated secreted lysozyme activity (log10) ([2]; 0.4 µM) | carbachol-stimulated secreted lysozyme activity (log10) ([2]; 2 µM) | carbachol-stimulated secreted lysozyme activity (log10) ([2]; 10 µM) | basal (log10) ([3]; 0.08 µM) | basal (log10) ([3]; 0.4 µM) | basal (log10) ([3]; 2 µM) | basal (log10) ([3]; 10 µM)
1 | Cc1sc2c(c1C)C(c1ccc(Cl)cc1)=N[C@@H](CC(=O)Nc1ccc(O)cc1)c1nnc(C)n1-2 | -0.0384 ± 0.17 | -0.398 ± 0.44 | -0.686 ± 0.092 | -0.908 ± 0.27 | -0.366 ± 0.075 | -0.465 ± 0.055 | -0.457 ± 0.11 | -0.455 ± 0.086 | -0.198 ± 0.12 | -0.266 ± 0.15 | -0.239 ± 0.14 | -0.256 ± 0.097
2 | N[C@@H]1C[C@H]1c1ccccc1 [Tranylcypromine (2-PCPA) HCl] | -0.0329 ± 0.49 | 0.0386 ± 0.02 | -0.00732 ± 0.31 | -0.69 ± 1 | 0.0104 ± 0.19 | 0.00343 ± 0.14 | 0.195 ± 0.19 | -0.0239 ± 0.12 | -0.0275 ± 0.14 | -0.029 ± 0.034 | 0.0446 ± 0.07 | 0.0163 ± 0.036
3 | C=C1C[C@@H]2[C@H](CC[C@]3(C)C(=O)CC[C@@H]23)[C@@]2(C)C=CC(=O)C=C12 [Exemestane] | -0.0459 ± 0.41 | -0.407 ± 0.81 | 0.17 ± 0.25 | -0.167 ± 0.45 | 0.143 ± 0.082 | 0.16 ± 0.069 | 0.0676 ± 0.11 | 0.062 ± 0.1 | 0.0513 ± 0.19 | 0.0789 ± 0.19 | 0.00143 ± 0.11 | 0.00688 ± 0.1
4 | Cc1sc2c(c1C)C(c1ccc(Cl)cc1)=N[C@@H](CC(=O)OC(C)(C)C)c1nnc(C)n1-2 | -0.223 ± 0.3 | -0.861 ± 0.47 | -1.01 ± 0.083 | -0.844 ± 0.31 | -0.412 ± 0.037 | -0.487 ± 0.045 | -0.459 ± 0.0092 | -0.453 ± 0.079 | -0.256 ± 0.15 | -0.296 ± 0.084 | -0.254 ± 0.12 | -0.257 ± 0.11
5 | CN1CCc2cc3c(cc2C1C1OC(=O)c2c1ccc1c2OCO1)OCO3 (single isomer, unassigned; (+)) [(+)-Bicuculline] | 0.318 ± 0.49 | -0.0291 ± 0.21 | -0.166 ± 0.52 | -0.132 ± 0.15 | 0.0396 ± 0.045 | 0.0668 ± 0.066 | 0.0158 ± 0.026 | 0.118 ± 0.25 | 0.0925 ± 0.13 | 0.0133 ± 0.065 | 0.031 ± 0.047 | 0.0202 ± 0.052
6 | CC[C@@H]1/C=C/C=C/C[C@H](C)[C@H](O)[C@](C)(O)C(=O)[C@H](C)[C@@H](O)[C@H](C)C(=O)[C@H](C)[C@@H](O)[C@H](C)/C=C/C(=O)O[C@H]2[C@@H](C)[C@@H](CC1)O[C@@]1(CC[C@@H](C)[C@@H](C[C@H](C)O)O1)[C@@H]2C [Oligomycin A] | -0.662 ± 0.28 | -0.706 ± 0.5 | -0.946 ± 0.55 | -1.24 ± 0.7 | -0.266 ± 0.18 | -0.3 ± 0.17 | -0.316 ± 0.19 | -0.335 ± 0.16 | -0.204 ± 0.075 | -0.231 ± 0.073 | -0.213 ± 0.051 | -0.223 ± 0.073
7 | O=[N+]([O-])/C=C/c1ccc2c(c1)OCO2 [MNS (3,4-Methylenedioxy-Œ≤-nitrostyrene, MDBN)] | -0.0156 ± 0.42 | 0.0613 ± 0.25 | 0.062 ± 0.21 | -0.197 ± 0.41 | 0.0344 ± 0.069 | 0.107 ± 0.31 | 0.000258 ± 0.25 | -0.226 ± 0.23 | 0.0573 ± 0.045 | -0.0102 ± 0.063 | 0.0399 ± 0.09 | -0.15 ± 0.16

Source: the supplement of paper PMC9046079
